Measurements: PubChem BioAssay AID504333 (National Center for Advancing Translational Sciences (NCATS), 2011)
Hit rate of the full screen: of about 360,000 compounds, about 16,000 (4.4%) were called active. The inconclusive results got no clear call from the source; some entries with a clear call stand among them for comparison. Calls follow the shape of the dose curve; as a rule, active = well fitted inhibition curve with a large enough effect; inconclusive = small, poorly fitted or top-dose-only effect; inactive = no such curve, though single readings can be large or run the other way. Potencies of inconclusive entries are doubtful fits and often do not repeat.

Molecular target: Bromodomain adjacent to zinc finger domain protein 2B (Homo sapiens) (UniProt Q9UIF8)
Test: qHTS Assay for Inhibitors of BAZ2B; also: nearly all actives have a fitted effect of over 60% in size
Conditions: AlphaScreen BAZ2B-H3K14Ac peptide displacement; series mostly up to 114 µM
How it was run: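 AlphaScreen displacement: compounds (up to 110uM) incubated 30 min at room temperature with a preformed 50 nM BAZ2B/50 nM biotinylated H3K14Ac peptide complex in PBS pH 7.4 with Tween-20. Donor and acceptor beads at 10 ug/mL final added, 20 min light-protected before reading.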
Potency is read from the fitted curve at half-maximal effect; tags tell the direction and shape of the fitted curve.

Chain of UniProt Q9UIF8 (Q9UIF8 whole entry, looked up, the tested form may be a part): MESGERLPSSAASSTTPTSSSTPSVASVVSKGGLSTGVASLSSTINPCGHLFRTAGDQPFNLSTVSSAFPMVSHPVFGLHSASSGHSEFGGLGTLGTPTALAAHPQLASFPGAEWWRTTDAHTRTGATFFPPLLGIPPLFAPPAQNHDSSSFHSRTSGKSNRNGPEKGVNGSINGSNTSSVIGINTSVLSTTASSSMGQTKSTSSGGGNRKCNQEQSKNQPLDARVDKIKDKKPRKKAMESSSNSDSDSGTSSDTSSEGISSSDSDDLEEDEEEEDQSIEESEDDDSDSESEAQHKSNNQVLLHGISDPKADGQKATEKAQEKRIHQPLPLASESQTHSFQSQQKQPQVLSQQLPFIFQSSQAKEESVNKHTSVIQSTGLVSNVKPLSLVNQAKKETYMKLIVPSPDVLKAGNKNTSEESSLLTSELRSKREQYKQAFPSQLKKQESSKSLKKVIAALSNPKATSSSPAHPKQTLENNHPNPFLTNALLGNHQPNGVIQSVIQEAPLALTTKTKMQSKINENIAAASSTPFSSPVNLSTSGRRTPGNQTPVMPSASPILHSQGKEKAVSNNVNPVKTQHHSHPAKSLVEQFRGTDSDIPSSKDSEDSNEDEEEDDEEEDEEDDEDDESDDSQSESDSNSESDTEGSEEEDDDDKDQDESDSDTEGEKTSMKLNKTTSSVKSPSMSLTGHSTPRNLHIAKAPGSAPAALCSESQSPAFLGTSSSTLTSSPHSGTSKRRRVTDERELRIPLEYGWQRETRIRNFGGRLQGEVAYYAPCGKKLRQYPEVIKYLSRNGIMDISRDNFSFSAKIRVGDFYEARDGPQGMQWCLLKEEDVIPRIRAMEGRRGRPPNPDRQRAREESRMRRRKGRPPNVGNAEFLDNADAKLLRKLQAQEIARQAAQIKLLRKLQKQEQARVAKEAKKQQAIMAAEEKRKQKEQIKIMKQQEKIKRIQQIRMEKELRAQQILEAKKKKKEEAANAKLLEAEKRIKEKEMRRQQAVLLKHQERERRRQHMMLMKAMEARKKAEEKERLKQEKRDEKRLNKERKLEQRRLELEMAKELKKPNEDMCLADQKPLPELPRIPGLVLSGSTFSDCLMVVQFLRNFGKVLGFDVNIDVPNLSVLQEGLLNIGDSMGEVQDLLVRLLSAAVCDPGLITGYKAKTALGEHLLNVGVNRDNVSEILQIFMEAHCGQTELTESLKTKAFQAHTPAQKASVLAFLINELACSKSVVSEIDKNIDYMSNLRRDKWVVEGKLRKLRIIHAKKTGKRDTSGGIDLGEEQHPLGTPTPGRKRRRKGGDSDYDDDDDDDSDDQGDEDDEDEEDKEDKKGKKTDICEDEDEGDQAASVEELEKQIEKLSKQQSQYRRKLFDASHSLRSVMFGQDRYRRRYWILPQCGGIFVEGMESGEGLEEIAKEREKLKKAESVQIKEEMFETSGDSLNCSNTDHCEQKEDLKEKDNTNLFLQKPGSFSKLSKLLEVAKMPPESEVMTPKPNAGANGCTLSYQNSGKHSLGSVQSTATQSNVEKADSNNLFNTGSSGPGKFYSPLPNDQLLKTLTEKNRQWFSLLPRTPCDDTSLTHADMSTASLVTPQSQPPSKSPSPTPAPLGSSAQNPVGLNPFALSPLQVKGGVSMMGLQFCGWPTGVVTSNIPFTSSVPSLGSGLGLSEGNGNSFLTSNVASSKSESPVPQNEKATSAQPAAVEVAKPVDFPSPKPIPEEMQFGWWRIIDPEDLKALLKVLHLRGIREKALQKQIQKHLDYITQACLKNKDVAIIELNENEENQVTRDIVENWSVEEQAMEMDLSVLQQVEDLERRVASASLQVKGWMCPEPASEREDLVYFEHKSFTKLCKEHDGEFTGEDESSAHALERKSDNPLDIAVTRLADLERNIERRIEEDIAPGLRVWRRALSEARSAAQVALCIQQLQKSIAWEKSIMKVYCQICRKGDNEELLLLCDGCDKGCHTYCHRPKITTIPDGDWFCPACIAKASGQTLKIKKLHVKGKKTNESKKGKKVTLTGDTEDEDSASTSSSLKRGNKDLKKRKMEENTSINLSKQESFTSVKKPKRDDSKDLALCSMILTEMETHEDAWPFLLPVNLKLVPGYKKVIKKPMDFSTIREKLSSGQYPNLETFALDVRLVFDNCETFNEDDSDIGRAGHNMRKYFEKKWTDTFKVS

SMILES	Potency
COc1cccc(N2CCN(S(=O)(=O)c3ccc(-c4cnc(C5CC5)o4)cc3)CC2)c1	inconclusive: 89.1 µM [inhibitor, single point]
COc1ccc(-c2cnc(SCC(=O)Nc3ccc4c(c3)OCO4)n2Cc2ccco2)cc1	inconclusive: 17.8 µM [inhibitor, single point]
O=C(Nc1c(C(=O)N2CCN(c3ccc(F)cc3)CC2)oc2ccccc12)c1ccco1	inconclusive: 39.8 µM [inhibitor, single point]
Nc1nn2c(-c3ccccc3)cc(=O)[nH]c2c1N=Nc1ccc(O)cc1	inconclusive: 50.1 µM [inhibitor, partial curve]
COc1cccc(-c2sc3ccc(OC)cc3c2C#CC2(O)CCCCC2)c1	inconclusive: 89.1 µM [inhibitor, single point]
COc1ccc(-n2c(-c3ccc(Cl)cc3)cc3c2CC(C)(C)CC3=O)c(OC)c1	active: 11.2 µM
CCOc1ccccc1NC(=O)CNC(=O)N1CC(=O)Nc2ccccc21	inactive
Cc1cccc(OCc2nnc(SCC(=O)Nc3nccs3)o2)c1	active: 79.4 µM
Cn1c(=O)[nH]c(=O)c2c1nc(SCC(O)CCl)n2Cc1ccccc1 (stereo not given)	inactive
CCCCCCc1c(O)nc(SCC(=O)O)[nH]c1=O	inconclusive: 3.16 µM [inhibitor, partial curve, poor fit]
CN1/C(=C\C=N\NC(=O)c2ccccc2Br)C(C)(C)c2ccccc21	inconclusive: 7.08 µM [inhibitor, full curve]
CCOC(=O)c1c(C=O)c(C)n(Cc2ccc(C)cc2)c1C	inconclusive: 56.2 µM [inhibitor, partial curve]
CCn1c(CNC(=O)c2cccnc2)cc2ccccc21	inconclusive: 89.1 µM [inhibitor, single point]
COc1ccc(-c2nc3ccccn3c2NC2CCCCC2)cc1SC1CCCCC1	inconclusive: 50.1 µM [inhibitor, partial curve]
Cc1ccc(C)c(S(=O)(=O)NCC(c2ccc(N(C)C)cc2)N2CCOCC2)c1 (stereo not given)	inconclusive: 44.7 µM [inhibitor, partial curve]
CC1CC2=C(NC(=S)NC2c2cccc(F)c2)/C(=C/c2cccc(F)c2)C1 (stereo not given)	inconclusive: 15.8 µM [inhibitor, full curve]
O=C(N/N=C/c1cc(Cl)cc([N+](=O)[O-])c1O)c1cccc(S(=O)(=O)N2CCOCC2)c1	active: 25.1 µM
O=[N+]([O-])c1cccc(S(=O)(=O)NCCOc2cccc3cccnc23)c1	inactive
O=C(COc1ccccc1)Nn1cnc2ccccc21	inconclusive: 89.1 µM [inhibitor, single point]
COC(=O)c1ccc(CSc2nnc(C)s2)cc1	inactive
COc1cccc(/C=C2/C(=O)NN(c3ccc(Br)cc3)C2=O)c1O	inconclusive: 31.6 µM [inhibitor, partial curve]
COc1ccc(S(=O)(=O)N2CCOC2CNC(=O)C(=O)NCC(C)C)cc1OC (stereo not given)	inconclusive: 70.8 µM [inhibitor, single point]
CCSc1cc(C)nc2ncnn12	inconclusive: 11.2 µM [inhibitor, single point]
COc1ccc(C2c3[nH]c4ccccc4c3C[C@H]3C(=O)N(C4CCN(Cc5ccccc5)CC4)CC(=O)N23)cc1OC (stereo not given in full)	inconclusive: 35.5 µM [inhibitor, partial curve]

SMILES	Potency
O=C(NC(=S)Nc1ccc2c(c1)OCCO2)c1ccco1	inconclusive: 39.8 µM [inhibitor, partial curve]
COc1nccnc1NS(=O)(=O)c1ccc(NC(=S)NC(=O)c2cccc(F)c2)cc1	inconclusive: 70.8 µM [inhibitor, single point]
COc1ccc(OC)c(CNC(=O)Cn2nc(C)c3c(C)n(-c4ccccc4)nc3c2=O)c1	inactive
Cc1ccc(O)c(C(=O)c2cnn(C(=O)COc3ccccc3C#N)c2)c1	inconclusive: 39.8 µM [inhibitor, single point]
COc1ccc(OC)c(N=c2ssnc2Cl)c1	active: 25.1 µM
CCOc1ccc(NS(=O)(=O)c2ccc(NC(=O)[C@@H]3CCCC[C@@H]3C(=O)O)cc2)cc1	inactive
Cc1ccccc1N1C(=O)CC(Sc2nnc(-c3ccccc3)o2)C1=O (stereo not given)	inactive
Cc1nn2c(-n3ccnc3C)c3c(nc2c1-c1ccccc1)CCC3	inconclusive: 7.08 µM [inhibitor, single point]
CN(C)c1ccc(C(=S)N2CCCCCC2)cc1	inconclusive: 50.1 µM [inhibitor, partial curve]
NC(=O)CC(NC(=O)c1cccc(Br)c1)c1ccc(NCCN2CCOCC2)c([N+](=O)[O-])c1 (stereo not given)	inconclusive: 89.1 µM [inhibitor, single point]
CC1=C(C(=O)Nc2ccccc2)C(c2ccncc2)n2nc(SCc3ccccc3)nc2N1 (stereo not given)	inconclusive: 89.1 µM [inhibitor, single point]
COc1ccc(O)c(C(=O)CC(=O)c2ccc(F)cc2)c1	inconclusive: 70.8 µM [inhibitor, single point]
O=[N+]([O-])c1cc(CN2CCOCC2)c2cccnc2c1O	active: 3.16 µM
COCCNC(=S)NNc1ccc(Cl)c(C(=O)O)c1	inconclusive: 79.4 µM [inhibitor, single point]
CC1CCCC(C)N1CCCNC(=O)C(=O)Nc1ccc2nc3n(c(=O)c2c1)CCCCC3 (stereo not given)	inactive
Cn1c(=O)n(C)c2cc(/C=N/NC(=S)NCc3ccccc3)ccc21	inconclusive: 56.2 µM [inhibitor, single point]
O=C(Nc1ccc2nccnc2c1)Nc1ccccc1Cl	inactive
COc1ccc(/C=C2\SC(=S)N(CC(=O)NNC(=O)c3ccncc3)C2=O)cc1	inactive
CCCCN(C)S(=O)(=O)c1ccc(C(=O)Nc2nnc(CSC)o2)cc1	inconclusive: 89.1 µM [inhibitor, single point]
CCOc1ccc2c(c1)C(NC(C)=O)C(=O)N2CCN1CCOCC1 (stereo not given)	active: 10 µM
NC(=O)C1CCCN(Cc2ccc(Cl)cc2)C1 (stereo not given)	active: 79.4 µM
CCCCN=Cc1sc2ccc(OCC)cc2c1O	active: 79.4 µM
CC1=C(C#N)C(Nc2ccc(C)cn2)(C(F)(F)F)C(=O)N1 (stereo not given)	inactive
CCOC(=O)c1cc2c(=O)n3ccccc3nc2n(CCCOC)c1=NC(=O)c1cc2ccccc2o1	inactive

SMILES	Potency
CC(=O)Nc1ccc(S(=O)(=O)NC2(C(F)(F)F)C(=O)Nc3c2c(=O)[nH]c(=O)n3-c2ccc(C)cc2)cc1 (stereo not given)	inactive
O=c1nc(/C=C/c2ccc(O)c(O)c2)oc2ccccc12	inconclusive: 50.1 µM [inhibitor, partial curve]
COCCNC(=O)CN1CCN(C(c2ccccc2)c2ccccc2)CC1	inconclusive: 89.1 µM [inhibitor, single point]
COC(=O)C1=C(C)Nc2sc(C(N)=O)c(N)c2C1c1ccncc1 (stereo not given)	inconclusive: 79.4 µM [inhibitor, partial curve]
CC(=O)c1c(C)[nH]c(C(=O)OCC(=O)NCC(C)C)c1C	inconclusive: 50.1 µM [inhibitor, partial curve]
Cc1ccc(C(=O)CC2(O)C(=O)N(CCc3ccccc3)c3ccc(Br)cc32)cc1 (stereo not given)	inactive
Cc1onc(-c2c(Cl)cccc2Cl)c1C(=O)N1CCc2ccccc2C1	inconclusive: 89.1 µM [inhibitor, single point]
CCCCn1c(SC(C)C(=O)NCC2CCCO2)nc2cc(C(=O)OC)ccc2c1=O (stereo not given)	inconclusive: 89.1 µM [inhibitor, single point]
CCSc1n[nH]c(=S)s1	inconclusive: 63.1 µM [inhibitor, partial curve, poor fit]
CCOc1ccccc1CNC(=O)CCc1cn(C)c2ccccc12	inconclusive: 70.8 µM [inhibitor, single point]
O=C(Nc1cc(Br)ccc1O)C1CC(c2ccccc2Cl)=NO1 (stereo not given)	inconclusive: 56.2 µM [inhibitor, single point]
O=C(CCN1C(=O)c2ccccc2S1(=O)=O)NCc1ccccc1Cl	inactive
Cc1ccc(-c2[nH]ncc2CNCCc2cnn(-c3ccccc3)c2)cc1C	inactive
COc1ccc(C(=O)NC2CC2)cc1OC1CCN(Cc2cc(C)cc(C)c2)CC1	inactive
COc1ccc(-n2c(=S)[nH]c3ccccc3c2=S)cc1	inactive
COc1ccc(-c2ccc(OC)c([C@H]3[C@H]4C=CC[C@@H](C)[C@@H]4C(=O)N3Cc3ccccc3)c2)cc1OC	inactive
CCC(C)Sc1cccc(-c2nc3ccc(C)cn3c2NCc2ccccc2)c1 (stereo not given)	inconclusive: 79.4 µM [inhibitor, single point]
CN(C)CCCN(C(=O)c1ccc2c(c1)CCCC2)c1nc2cc3c(cc2s1)OCO3	inconclusive: 35.5 µM [inhibitor, partial curve]
COc1ccc2cc(OCC(=O)NNC(=O)Nc3ccc(OC)c(OC)c3)ccc2c1	inconclusive: 79.4 µM [inhibitor, single point]
COc1cc2c(cc1OC)CN(C(=O)COc1ccccc1C#N)CC2	inconclusive: 50.1 µM [inhibitor, partial curve]
COC(=O)c1cc(OC)c(OC)cc1NCC(=O)Nc1cccc(C(F)(F)F)c1	inconclusive: 79.4 µM [inhibitor, single point]
COc1ccc(-c2[nH]c(-c3ccc(C)cc3)nc2SCC(=O)NCC2CCCO2)cc1 (stereo not given)	inconclusive: 50.1 µM [inhibitor, partial curve]
